Results published in paper PMC7819943, “Rice protein-binding microarrays: a tool to detect cis-acting elements near promoter regions in rice”.
The other results are listed elsewhere or left out.

Target: T1, OsWOX13 (Oryza sativa, UniProt Q5QMM3 1-267)
T1 sequence: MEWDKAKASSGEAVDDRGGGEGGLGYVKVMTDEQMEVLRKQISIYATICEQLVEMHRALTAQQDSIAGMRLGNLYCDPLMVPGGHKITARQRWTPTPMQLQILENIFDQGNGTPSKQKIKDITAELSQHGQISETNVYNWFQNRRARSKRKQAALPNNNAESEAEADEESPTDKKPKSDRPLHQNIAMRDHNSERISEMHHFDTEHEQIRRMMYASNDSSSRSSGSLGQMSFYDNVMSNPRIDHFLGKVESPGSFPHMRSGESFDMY
Assay: protein-binding microarray (RPBM); PBS, 2% BSA, 51.3 ng/ul salmon testes DNA, 50 uM zinc acetate, 200 nM TF, 25 C, 1 h; high values mean tight binding
Conditions: protein: recombinant; tags: N-terminal polyhistidine and DsRed monomer fusion (pET32a); label: CyDye5-dUTP incorporated in the synthesized complementary strand; 3' TTTTT single-stranded linker to array surface; dsDNA, one strand shown
Procedure, shortened: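 Polyhistidine-tagged DsRed fusions of transcription factors, joined at the N-terminus, were expressed in E. coli BL21-CodonPlus and isolated on Ni–NTA. They were incubated at 200 nM for 1 h at 25 °C on a custom Agilent array, double-stranded and BSA-blocked, in PBS with 2% BSA, salmon testes DNA and 50 µM zinc acetate. The binding signal is per-feature fluorescence intensity (arbitrary units) read on an Axon 4000B scanner after washing.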

Sequence | binding signal
TCCAATTTACAAGATAATTCACATAACAGTACAACCTACTCGGAGTCACCTAGTGCAG | 5630 fluorescence intensity (a.u.)
TGATTAGTGATTAGATTGAACGGATTTCTCCCCTATTTGCCGGAGTCACCTAGTGCAG | 30200 fluorescence intensity (a.u.)
TGTAAATTATGTTGTACATCCTTTCAAGATCAATAACTACCGGAGTCACCTAGTGCAG | 10500 fluorescence intensity (a.u.)
ATATAAATTAATATGTGCCGATTTTCACCCGGCATACATACGGAGTCACCTAGTGCAG | 14100 fluorescence intensity (a.u.)
TCATGGTGATTGCGGCATGAGAGAGTGAGGGTTCTGCGAGCGGAGTCACCTAGTGCAG | 10300 fluorescence intensity (a.u.)
TTTTAGCTAATACTTAATTAATCGTGCATTAATCCATCACCGGAGTCACCTAGTGCAG | 3540 fluorescence intensity (a.u.)
TAAATTTACCTTTTAAAATTATAACAATTACTCCCTCCGTCGGAGTCACCTAGTGCAG | 7360 fluorescence intensity (a.u.)
ATATTATGATTTGTCATAAGTGATGATACTATACTTCCTACGGAGTCACCTAGTGCAG | 4110 fluorescence intensity (a.u.)
CTCAGTAATCACTTCGCACATTAACTCTCTCTCTCTTTCTCGGAGTCACCTAGTGCAG | 3320 fluorescence intensity (a.u.)
GTATTAAAAGACACGATAGATTGGCAGATTACCACCATCGCGGAGTCACCTAGTGCAG | 23700 fluorescence intensity (a.u.)
GCTAGATTTAATGAAACTAATTTGGTGTTTTGAAAGTTGCCGGAGTCACCTAGTGCAG | 28200 fluorescence intensity (a.u.)
GAATAATTACCGAAAAGGCAATTAATTAGTGACAGGGAGTCGGAGTCACCTAGTGCAG | 26200 fluorescence intensity (a.u.)
TAAATTGGAATCTTCAATTTTACCCCTACCTTAAGCAAAGCGGAGTCACCTAGTGCAG | 16500 fluorescence intensity (a.u.)
ATTAATTAAAATTTGAAAAGAAATTGGATAATACTAAAATCGGAGTCACCTAGTGCAG | 5240 fluorescence intensity (a.u.)
ATGATTTACATTATTGTTCGAAACAATAACATGTAAATCCCGGAGTCACCTAGTGCAG | 27000 fluorescence intensity (a.u.)
AGAGACTTAATAGATTCCGAAATCACCATCATCGCTGTTTCGGAGTCACCTAGTGCAG | 7780 fluorescence intensity (a.u.)
AAATTAATTTATCGTACATCACTAGTCACAGGCTTTTGTGCGGAGTCACCTAGTGCAG | 21800 fluorescence intensity (a.u.)
AAGTCTAATTAATCCATCATTAGCAAATGTTTATTGTAGCCGGAGTCACCTAGTGCAG | 26700 fluorescence intensity (a.u.)
ACTTGATTGGCAGTCGCCACTGACCAACTTTCCAAAACCTCGGAGTCACCTAGTGCAG | 40500 fluorescence intensity (a.u.)
CGAATTTTCAATTATACTATCGATTTAAACTAAGTAATGGCGGAGTCACCTAGTGCAG | 7150 fluorescence intensity (a.u.)
TAGGAATTGAATAAACATGATAAGTTGGGGTTCTGAAGACCGGAGTCACCTAGTGCAG | 6520 fluorescence intensity (a.u.)

Sequence | binding signal
ATATGTTATTAGTTAATTATTACCGGCCTTCCACATGAGCCGGAGTCACCTAGTGCAG | 8280 fluorescence intensity (a.u.)
AATATAATTTTAAATTGTAAAATTATAGAGCTAACAAGTTCGGAGTCACCTAGTGCAG | 35900 fluorescence intensity (a.u.)
ATTGCAATTACATCGATCAAAGGTGTGGCCCATTGCATATCGGAGTCACCTAGTGCAG | 5630 fluorescence intensity (a.u.)
GTTCGTTCGTTCGTTGATTGATTGTGTTGAATTAATTGAGCGGAGTCACCTAGTGCAG | 27600 fluorescence intensity (a.u.)
AGTTAATTAATTAATTAGCTACGTACTCTTGTGCCTCTGTCGGAGTCACCTAGTGCAG | 54900 fluorescence intensity (a.u.)
GAGCGCAAATTTGTTTGATAAATTTTAGGTGAAAATTTGTCGGAGTCACCTAGTGCAG | 15600 fluorescence intensity (a.u.)
CCCCATCATAAATGGCTGATTTAATTGGGCTGTACTCCCTCGGAGTCACCTAGTGCAG | 18900 fluorescence intensity (a.u.)
AGTTATTGACAGTGACTAATCTACCTAATCCGTAGATTAACGGAGTCACCTAGTGCAG | 12500 fluorescence intensity (a.u.)
CTGAGTGACTGGTTGGTGGGCCCCACCCAGCGTCTCTTCTCGGAGTCACCTAGTGCAG | 8170 fluorescence intensity (a.u.)
GGTAATTGGGAGGGAATTCCTCCTTTACTTCACATAAACACGGAGTCACCTAGTGCAG | 13400 fluorescence intensity (a.u.)
TCCCAATTGAATATTTGCACACATTTGTTTCTTTCCTTTGCGGAGTCACCTAGTGCAG | 8920 fluorescence intensity (a.u.)
CTTCAATCTATCAGTTCACTTAGGGAGTGTTTGAAGAGAACGGAGTCACCTAGTGCAG | 9100 fluorescence intensity (a.u.)
AAAATAAATTGACAACATTCGTACAATATATATAAATATCCGGAGTCACCTAGTGCAG | 25900 fluorescence intensity (a.u.)
ACTAAAATTGAAAGTTTGATTAAAATTAGAACGATGTGACCGGAGTCACCTAGTGCAG | 39800 fluorescence intensity (a.u.)
TATGAATATAAATCATGAATAACTCTCAAGTTGTTGAGTTCGGAGTCACCTAGTGCAG | 4760 fluorescence intensity (a.u.)
ATCTCGAAGTAAATTTAATTGTTCAAAATTATATAAAAGCCGGAGTCACCTAGTGCAG | 6980 fluorescence intensity (a.u.)
GATTTTCAGTCTAATGCCATTTAGCAATTCTGATGTTAGACGGAGTCACCTAGTGCAG | 3490 fluorescence intensity (a.u.)
GTTGATTTGATAATGATAATTATGCAATGGCCGACATATACGGAGTCACCTAGTGCAG | 37800 fluorescence intensity (a.u.)
CAAAATTGGTAGACTTTCATGACAGAATCCCTGTACATTACGGAGTCACCTAGTGCAG | 12000 fluorescence intensity (a.u.)
AATAAATTGTATTAATAACAAATTAGTCTATTCTATTAAACGGAGTCACCTAGTGCAG | 24100 fluorescence intensity (a.u.)
ATTTTACAGGGTGATTTGAACATACAGTAATTATGGCCAACGGAGTCACCTAGTGCAG | 6520 fluorescence intensity (a.u.)
